# Test results reported in the supplement of paper PMC3334620.
# The full ranking holds about 33,000 sequences; the median of “E-score (-0.5 to 0.5)” is about -0.011, and the highest 2% start at about 0.28. Some of the results follow.
# Biological target: T1, Gcr1 (UniProt P07261)
# T1 sequence: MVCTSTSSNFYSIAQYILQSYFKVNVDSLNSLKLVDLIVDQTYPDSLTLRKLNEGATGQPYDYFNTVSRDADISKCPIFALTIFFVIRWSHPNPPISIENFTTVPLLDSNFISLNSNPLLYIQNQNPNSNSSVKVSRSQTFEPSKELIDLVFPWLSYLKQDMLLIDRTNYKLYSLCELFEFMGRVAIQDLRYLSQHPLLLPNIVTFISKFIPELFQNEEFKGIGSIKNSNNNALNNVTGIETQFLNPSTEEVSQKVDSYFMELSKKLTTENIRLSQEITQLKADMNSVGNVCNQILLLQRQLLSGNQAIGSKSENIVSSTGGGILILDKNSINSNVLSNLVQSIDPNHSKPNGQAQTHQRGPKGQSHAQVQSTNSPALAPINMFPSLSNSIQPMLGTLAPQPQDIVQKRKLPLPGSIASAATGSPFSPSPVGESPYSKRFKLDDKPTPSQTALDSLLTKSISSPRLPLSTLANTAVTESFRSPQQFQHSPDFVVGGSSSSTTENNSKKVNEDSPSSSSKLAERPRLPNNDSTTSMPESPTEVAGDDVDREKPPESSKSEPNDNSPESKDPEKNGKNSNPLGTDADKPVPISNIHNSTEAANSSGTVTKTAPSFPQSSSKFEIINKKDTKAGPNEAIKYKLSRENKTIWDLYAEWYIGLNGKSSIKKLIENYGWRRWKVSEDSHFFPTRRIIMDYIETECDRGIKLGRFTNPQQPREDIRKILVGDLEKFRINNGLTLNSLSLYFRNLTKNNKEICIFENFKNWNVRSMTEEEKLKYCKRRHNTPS
# Test: PBM E-score (8-mer binding enrichment) (E-score (-0.5 to 0.5)); higher = stronger / more preferred TF binding; most listed sequences are background and not binding sites
# Details: protein concentration: 100 nM; construct: GST-full length
# Summary of the method: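 Masliner-normalised scans of fluorescent anti-GST signal were the basis for scoring. That signal came from GST-tagged yeast transcription factors applied at about 100-200 nM to double-stranded universal all-10-mer Agilent arrays on fresh or once-stripped slides. Each ungapped eight-base word, pooled with its reverse complement, received an E-score from the Universal PBM Analysis Suite.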
row,Sequence,PBM E-score
1,CAAGAAGC,0.24
2,AGTAAACA,-0.0203
3,CGTTTCGC,-0.137
4,GCAACTAA,0.0559
5,CGAACGCG,-0.0986
6,TCCCTCGA,-0.131
7,CAGGACTG,0.0079
8,GGAGGGAC,-0.122
9,CTTACTAC,0.00849
10,ATCGCCCC,-0.13
11,CAACGGAG,0.11
12,CTTACAGC,-0.247
13,CCACTCAG,0.138
14,CACCCGGA,0.136
15,CCCCGGAC,-0.1
16,GTACTAAA,0.118
17,CCTCCTAC,-0.163
18,CCGACGTA,-0.0898
19,GTCTCCAA,0.21
20,CGATAGAC,-0.201
21,ATTTTTGG,0.186
22,CACACCCA,0.0013

row,Sequence,PBM E-score
1,ACACTAAC,-0.0511
2,ACTAGTGC,-0.0321
3,AGCAATCA,-0.0811
4,AGCCCGCC,-0.0705
5,GAACGCTC,-0.17
6,ATCAGAAT,0.196
7,CTCTGTAC,-0.113
8,CTACGTTC,-0.066
9,ACGCACCC,0.218
10,CTTCATGA,0.0466
11,ATATGACC,-0.207
12,CAGCATGG,-0.18
13,ATAGGAAT,0.27
14,CAGCGAGC,-0.131
15,AGGAGAGG,-0.194
16,AGGCAGGG,-0.244
17,GAAATACC,0.119
18,GAAGCCCC,0.381
19,GCGTTTAC,0.0722
20,CGCCGTAA,-0.00766
21,CTTTGCTA,-0.168
22,GGAGAAGA,-0.0157

row,Sequence,PBM E-score
1,TCCCCTCA,0.107
2,AAGTCCCT,-0.154
3,ACACATGG,-0.194
4,CCCCCTCC,-0.234
5,CTAAGGAA,0.104
6,GTGAGGCA,-0.0718
7,CAGAAGAC,0.0276
8,CGCGTGCC,-0.182
9,AGGTCCAG,0.0218
10,ACCATATG,-0.0133
11,TAGCCCCA,0.139
12,CTGCTCGA,-0.0563
13,AAACTCGA,-0.0314
14,GAGAACGC,-0.124
15,CCTGAGTC,0.0838
16,ATGTGCCC,-0.17
17,AAACCATT,-0.0208
18,GTAATGAA,-0.0605
19,AGGAGCAG,0.0777
20,CATTACTC,-0.127
21,ACCATGTA,0.0379
22,ATCACCGG,0.0589

row,Sequence,PBM E-score
1,ATTCCGTA,0.173
2,ATTTGGTG,0.166
3,CCGCATAG,0.135
4,GCTTAAAC,0.0672
5,CTCGCCAA,0.0701
6,CGGTCGGA,-0.263
7,ACAATATC,-0.111
8,CTATGGTA,-0.0725
9,AACCACGC,0.0235
10,ACAGTTAC,0.0846
11,ATGCTGTC,-0.182
12,ATGCGTGA,-0.0544
13,AACCAAGC,-0.0438
14,CCGCCGGA,0.0444
15,GCTCACGA,-0.131
16,GATTGTCC,-0.11
17,CGTAGACC,-0.256
18,TAAAGGAA,0.314
19,GACCATAA,0.0388
20,CGCGTACA,-0.0115
